Measurements published in article PMC4336329 (PLoS ONE, 2015).
In all, about 310,000 compounds went through this assay and about 14,000 (4.5%) showed an effect of 50% or more. Effects have a minus sign here. This is one part of the list.

These compounds were tested against human ether-à-go-go-related gene (hERG) potassium channel (human, UniProt Q12809) (assay: primary screen, population patch clamp on CHO cells stably expressing hERG).
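Also: peak tail current of the secondary pulse compared with the same well before compound.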

Sequence of human ether-à-go-go-related gene (hERG) potassium channel (Q12809 whole entry, looked up): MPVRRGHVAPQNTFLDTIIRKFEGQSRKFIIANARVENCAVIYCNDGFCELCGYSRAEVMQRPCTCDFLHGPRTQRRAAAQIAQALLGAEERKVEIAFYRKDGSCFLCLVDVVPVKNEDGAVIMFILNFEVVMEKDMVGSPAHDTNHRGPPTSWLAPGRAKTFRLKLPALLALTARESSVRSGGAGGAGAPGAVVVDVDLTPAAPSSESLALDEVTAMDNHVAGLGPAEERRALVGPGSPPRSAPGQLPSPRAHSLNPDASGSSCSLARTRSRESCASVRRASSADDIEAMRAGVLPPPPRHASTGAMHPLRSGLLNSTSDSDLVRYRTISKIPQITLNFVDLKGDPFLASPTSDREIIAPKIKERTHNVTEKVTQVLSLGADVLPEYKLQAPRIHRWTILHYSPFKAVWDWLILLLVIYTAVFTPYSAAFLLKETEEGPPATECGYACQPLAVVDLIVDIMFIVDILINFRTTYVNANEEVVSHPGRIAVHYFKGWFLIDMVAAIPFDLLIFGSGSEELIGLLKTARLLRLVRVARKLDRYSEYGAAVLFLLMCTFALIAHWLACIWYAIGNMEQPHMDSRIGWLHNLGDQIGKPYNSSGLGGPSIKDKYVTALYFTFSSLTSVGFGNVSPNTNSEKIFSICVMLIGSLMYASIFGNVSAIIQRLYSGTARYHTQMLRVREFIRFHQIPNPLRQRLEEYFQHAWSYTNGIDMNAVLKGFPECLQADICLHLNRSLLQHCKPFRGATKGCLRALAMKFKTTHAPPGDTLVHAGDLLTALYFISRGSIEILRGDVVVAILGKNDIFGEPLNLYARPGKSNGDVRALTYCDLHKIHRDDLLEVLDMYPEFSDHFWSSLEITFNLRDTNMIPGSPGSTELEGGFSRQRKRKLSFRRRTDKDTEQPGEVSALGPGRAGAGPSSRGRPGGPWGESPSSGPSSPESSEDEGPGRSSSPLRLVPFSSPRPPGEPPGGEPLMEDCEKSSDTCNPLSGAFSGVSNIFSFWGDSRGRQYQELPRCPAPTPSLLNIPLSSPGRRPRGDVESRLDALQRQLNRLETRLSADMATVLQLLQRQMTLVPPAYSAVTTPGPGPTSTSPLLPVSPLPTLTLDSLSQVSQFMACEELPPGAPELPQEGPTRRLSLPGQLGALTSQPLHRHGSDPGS

Compound | hERG current change (%, negative = inhibition) at 10uM [%]
CN(C(=O)COC(=O)/C=C/c1ccc2c(c1)OCO2)c1c(N)n(Cc2ccccc2)c(=O)[nH]c1=O | 10.2
Cc1nc(Oc2ccccc2)c2ccccc2n1 | 4.59
Cc1ccc(-c2nnc(SCC(=O)N(CC(C)C)c3c(N)n(Cc4ccccc4)c(=O)[nH]c3=O)n2N)cc1 | -2.24
NC(=O)CSc1nnc(-c2ccccn2)n1N | 9.98
O=C(c1ccccc1)c1cncc(Br)c1 | 1.72
CCOC(=O)Cc1csc(NC(=O)CC)n1 | 3.71
COc1ccc(/C=N\NC(=O)c2ccccc2OC)cc1COc1c(F)c(F)c(F)c(F)c1F | 19.3
COc1ccc(OC)c(NC(=O)C2CCN(C(=O)c3cccs3)CC2)c1 | 15.7
O=C(CN1CCN(c2ccc(F)cc2)CC1)NCC1CCCO1 (centres unmarked) | -2.94
O=C(Nc1ccccc1C(=O)NCC1CCCO1)c1ccccc1F (centres unmarked) | 12.4
COc1ccc(-c2nc(CN3CCC(c4ccccc4)CC3)c(C)o2)cc1OC | -37.7
CCCN1CCN(CCCNC(=O)C(CC)n2nc(C)c3sc4ccccc4c3c2=O)CC1 (centres unmarked) | -48.4
CS(=O)(=O)N1CCc2ccc(NC(=O)C3CCCO3)cc2C1 (centres unmarked) | 18.8
O=C(O)c1cc(-c2cccc3ccccc23)nc2ccccc12 | 14.1
Cc1ccc(S(=O)(=O)NCc2ccc(N3CCN(C(=O)OC(C)(C)C)CC3)cc2)cc1 | 9.55
COc1ccc(CN2C(=O)CN(C3CCCCCC3)C(=O)C2c2ccc(F)cc2)cc1 (centres unmarked) | 3.27
Cc1ccccc1SCC(=O)Nc1cc(S(=O)(=O)N2CCOCC2)ccc1N1CCOCC1 | -8.57
Clc1ccc(OCCSc2nnnn2C2CCCCC2)cc1 | -13.4
Cc1nnc2ccc(-c3ccc(NS(=O)(=O)c4ccccc4F)cc3)nn12 | -9.46
O=C1CCOc2cc(OCc3ccccc3)ccc21 | -17.5
Cc1cc(=O)oc2cc(OCC(=O)N3CC(=O)Nc4ccccc43)c(Cl)cc12 | -10.3
OC1(c2ccc(F)cc2)CSC(=Nc2cccnc2)N1Cc1ccco1 (centres unmarked) | -14.2

Compound | hERG current change (%, negative = inhibition) at 10uM [%]
O=C(COC(=O)Cc1c(Cl)cccc1Cl)Nc1ccc2[nH]c(=O)[nH]c2c1 | 12.1
CN1c2ccccc2C(C)(C)C12C=Cc1cc(O)ccc1O2 (centres unmarked) | -5.61
CCN(CC)c1nc2c(s1)C(=O)CC(C)(C)C2 | 0.00258
Cc1ccc(NC2=NCC(=O)N2Cc2cccs2)cc1C.Cl | -43.8
CN(c1ccccc1)S(=O)(=O)c1ccc(C(=O)NNC(=O)c2ccccc2F)cc1 | -0.373
Cc1c(-c2ccccc2)nc2ccccc2c1C(=O)Nc1ccncc1 | -40.9
O=C(/C=N/O)Nc1ccc2sc3ccccc3c2c1 | 15.3
CCOC(=O)Cc1csc(NC(=O)COc2c(C)cccc2C)n1 | 23.6
CC1CCN(c2cc(=O)n(C3CCCCC3)c(=O)[nH]2)CC1 | 6.69
CCOC(=O)C1=C(COC(=O)COc2ccc(C(=O)CC)cc2)NC(=O)NC1C (centres unmarked) | -25.5
Cc1csc(NC(=O)c2cccc(Cn3nc(C)c(Br)c3C)c2)n1 | -8.88
Cc1cccc(N=C2NC(=O)/C(=C/C=C/c3ccco3)S2)c1C | 12.9
Cc1nc(NC(=O)C(C)Oc2cccc(Cl)c2)sc1C(=O)N(C)C (centres unmarked) | 7.22
Cc1nnc(-c2ccccc2)nc1N1CCOCC1 | -10.2
COc1cc(C2C3=C(CCCC3=O)Nc3[nH]n(-c4ccccc4)c(=O)c32)cc(OC)c1OC (centres unmarked) | 13.6
COc1cccc(N2CCN(CC(=O)Nc3nc4c(s3)CC(C)CC4)CC2)c1 (centres unmarked) | -16.7
CNS(=O)(=O)c1cccc(C(=O)OCC(=O)c2ccc[nH]2)c1 | 5.56
c1cncc(-c2nc(-c3ccc4c(c3)OCCO4)cs2)c1 | -4.72
Cc1nn(CCOc2ccc(Br)cc2)c(C)c1[N+](=O)[O-] | 6.79
c1ccc2[nH]c(CSc3nnc(-c4ccncc4)o3)nc2c1 | -24.8
O=C(N=C1SCC(=O)N1c1ccccc1Cl)c1ccco1 | 12.5
C=CCNC(=O)c1ccc(CNS(=O)(=O)c2ccc(NC(C)=O)cc2)cc1 | 8.09
